The source of these data is the supplement of paper PMC10338343.

± gives the standard deviation. This is a selection; strong and weak results do not stand in their true shares.
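Also: 1 nM active piRISC with 0.1 nM target library at 33 °C single turnover.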

For the test, the system named is MIWI (PIWIL1) piRISC loaded with piRNA #1 (30 nt). Put plainly: pre-steady-state target cleavage rate (min^-1); MIWI and MILI are mouse PIWI proteins and EfPiwi is from a freshwater sponge; tags in brackets are library labels; higher = faster piRNA-guided slicing of the target. The conditions noted are these: guide: piRNA #1 5'p-UGAGGUAGUAGGUUGUAUAGUAUCCAGAGG; auxiliary factor: 500 nM mouse GTSF1. The method, boiled down: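 For Cleave-'n-Seq, a transcribed, DNA-blocked target RNA library […] met 1 nM active affinity-purified piRISC with one synthetic guide at 33 °C for 0–8 or 0–960 min in HEPES–potassium acetate buffer, with or without 500 nM GTSF1 partner protein. Uncleaved targets were sequenced and normalised to depth and weakly complementary targets, with three trials pooled and k3 capped at 0.0001 min^-1. A burst-and-steady-state fit supplied the pre-steady-state cleavage rate.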
As for GGAGAGGAUACUAUACAUCCUAGUACCUCA, the “pre-steady-state target cleavage rate” value was found to be 0.0746 ± 0.019. Next, GGAGACCUAUCUAUAGAACCUACUACCUCA: 0.599 ± 0.06. In the case of GGACUGGUUACUAUACAAGCUACUACCUCA it was 0.962 ± 0.081; in that of GGAGACCAUAACUAUACAACCUACUACCUCA, 1.24 ± 0.089; in that of GGAGACGAUACUAUACAACCUAGAACCUCA, 0.283 ± 0.049. Next, GGAGACCUUACUAUACAACGUACUACCUCA: 0.606 ± 0.037; GGACUCGAUACUAUACAACGUACUACCUCA: 0.894 ± 0.054; GGAGACCUAUGUAUACAACCUACUACCGUCA: 0.083 ± 0.012. In the case of GGAGACGUUACUAUACAACCUACUACGUCA, the “pre-steady-state target cleavage rate” value came to 0.497 ± 0.072.

Regarding GGAGACCUUUCUAUACAACCUACAACCUCA, the “pre-steady-state target cleavage rate” value was found to be 0.286 ± 0.032. Next, GGAGUGGAUACUAUACAACCUACUACCUCCA: 1.63 ± 0.1; CCUCUGGAUAGUAUACAACCAACUACCUCA: 0.075 ± 0.0096; GGAGAGGAUACUAUUCAACCUACUACCUGA: 0.293 ± 0.03. Next, GGAGACCUAUGAUAUGUACCUCACUACCUCA: 0.00343 ± 0.0015; GGAGACCUAAGUAUACAACCUACUACCACA: 0.17 ± 0.05; GGAGACGAUACUAGACAACCUACUACCUCA: 1.49 ± 0.087. In the case of GGAGAGGAUAGUAAACAACCUACUACCUCA it was 0.125 ± 0.027; in that of GGAGACCUAUCAUAUACAACCUACUACCUCA, 0.109 ± 0.02; in that of GGAGACCUUACUAUACAACCUACUUCCUCA, 0.399 ± 0.035. In the case of GGAGUGGAUACAAUACAAGCUACUACCUCA, the “pre-steady-state target cleavage rate” value is 0.789 ± 0.036.

For the sequence GGUCUGGAUACUAUACAACGUACUACGUCA, the “pre-steady-state target cleavage rate” value came out at 0.478 ± 0.074. On to CCUCUGGAUACUAUACUACCUAGUACCUCA, for which the “pre-steady-state target cleavage rate” value worked out at 0.16 ± 0.034. In the case of CCUCUGGAAACUAUACAACCUAGUACCUCA, the “pre-steady-state target cleavage rate” value was 0.372 ± 0.053.

For GGAGACCUAUCUAUUCAACCUACUACCUGA, the “pre-steady-state target cleavage rate” value turned out to be 0.112 ± 0.028.

Regarding GGAGACGAGACUAUACAACCUACUACCUCA, the “pre-steady-state target cleavage rate” value came out at 1.63 ± 0.11. In the case of GGAGACCUAUGAUAUGUACCUACUACCAUCA it was < 0.0001; in that of GGAGACCUUACUAUAGAACCUACAACCUCA, 0.0303 ± 0.0095; in that of GCUCUGGAUUGUAUACAACCUACUACCUCA, 0.846 ± 0.065. Next, GGAGAGGAUACAAUACAAGCUACUACCUCA: 0.505 ± 0.037. For GGAGACCUAUCUUACAACCUACUACCUCA, the “pre-steady-state target cleavage rate” value is 0.293 ± 0.068. In the case of CCUCUGGAUACUAUACAACGUACUACCUCA it was 1.01 ± 0.057; in that of GGAGACCUUACUAUACAACCUACUACCUUA, 1.39 ± 0.09; in that of GGAGAGCAUACUAUACAACCUACUACCACA, 1.29 ± 0.062.

Regarding GGAGACGAUAGUAUACAACCUACAACCUCA, the “pre-steady-state target cleavage rate” value was 0.563 ± 0.036. In the case of GGAGACGAAACUAUACAACCUUCUACCUCA it was 0.55 ± 0.037; in that of GGAGACGAUACUAUACAUCCUACUACCUCA, 1.41 ± 0.088; in that of GGUCUGGAUACUAUACAACCUACUAUCCUCA, 0.489 ± 0.043.

Take GGUCUGGAUACUAUACAACCUACUACCCA: the “pre-steady-state target cleavage rate” value came out at 0.281 ± 0.067. In the case of CCUCUGGAUACUAUACAACCUACUACGUCA it was 1.49 ± 0.11; in that of GGAGUCGAUACUAUAGAACCUACUACCUCA, 0.295 ± 0.035.
